Reference: publication PMC5900784
These are yes or no findings as the source states them, for the method shown. Binding seen in cells or lysates may run through a third protein. Some results given as binding are weak or reduced against the parent protein; the word gives no strength.

Chains of the proteins cited; added tags and fusions are not shown. Lines headed by an entry give the natural chain unless they say otherwise; changes in a name come on top.
UniProt Q04206: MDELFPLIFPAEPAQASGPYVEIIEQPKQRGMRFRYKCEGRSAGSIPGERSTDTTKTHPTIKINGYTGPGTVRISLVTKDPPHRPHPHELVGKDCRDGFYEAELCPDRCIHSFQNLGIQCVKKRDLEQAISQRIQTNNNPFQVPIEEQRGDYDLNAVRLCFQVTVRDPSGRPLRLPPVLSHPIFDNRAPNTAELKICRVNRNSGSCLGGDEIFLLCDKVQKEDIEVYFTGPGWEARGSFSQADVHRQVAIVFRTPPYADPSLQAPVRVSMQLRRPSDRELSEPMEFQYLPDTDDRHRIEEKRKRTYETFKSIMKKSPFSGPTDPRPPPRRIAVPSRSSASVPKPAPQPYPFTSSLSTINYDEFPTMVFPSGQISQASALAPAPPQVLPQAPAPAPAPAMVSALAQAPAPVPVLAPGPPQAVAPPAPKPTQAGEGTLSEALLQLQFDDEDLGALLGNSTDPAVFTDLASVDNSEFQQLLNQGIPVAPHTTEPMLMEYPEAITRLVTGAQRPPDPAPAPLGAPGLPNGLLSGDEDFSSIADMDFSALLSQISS
UniProt Q8N6T7: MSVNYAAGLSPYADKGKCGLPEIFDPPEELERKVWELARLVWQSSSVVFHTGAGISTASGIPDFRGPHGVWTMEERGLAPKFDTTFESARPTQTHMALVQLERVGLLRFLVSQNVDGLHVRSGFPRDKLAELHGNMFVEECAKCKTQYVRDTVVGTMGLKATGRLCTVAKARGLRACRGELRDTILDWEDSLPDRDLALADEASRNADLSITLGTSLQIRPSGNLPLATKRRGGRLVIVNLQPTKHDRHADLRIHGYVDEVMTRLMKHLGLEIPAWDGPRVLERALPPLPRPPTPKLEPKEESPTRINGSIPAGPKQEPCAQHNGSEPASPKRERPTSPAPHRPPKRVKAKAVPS

Biological target: HA-p65 (NF-κB p65) (UniProt Q04206)
Assay: co-IP; HEK293T cells expressing HA-p65 together with Flag-SIRT6 variants; precipitated with a HA monoclonal antibody; immunoblot

binding	Substance
binds	Flag-SIRT6 (full-length SIRT6) (from UniProt Q8N6T7 1-355)
binds	Flag-SIRT6 sirtuin core domain (amino acids 34–274) (from UniProt Q8N6T7 34-274) (domain or fragment)
binds	Flag-SIRT6 ΔC (amino acids 275–355 was deleted) (from UniProt Q8N6T7 1-274) (domain or fragment)
binds	Flag-SIRT6 ΔN (amino acids 1–33 was deleted) (from UniProt Q8N6T7 34-355) (domain or fragment)

Biological target: HA-SIRT6 (UniProt Q8N6T7)
Assay: co-IP; HEK293T cells expressing HA-SIRT6 and Flag-p65 variants; precipitated with α-HA monoclonal antibody; immunoblot

binding	Substance
binds	Flag-p65 DNA binding domain (amino acids 1–186) (from UniProt Q04206 1-186) (domain or fragment)
no binding	Flag-p65 activation domain (amino acids 287–551) (from UniProt Q04206 287-551) (domain or fragment)
binds	Flag-p65 full-length (from UniProt Q04206 1-551)
binds	Flag-p65 ΔAD (from UniProt Q04206 1-286) (domain or fragment)

Biological target: HA-p65 (NF-κB p65) (UniProt Q04206)
Assay: co-IP; HEK293T cells expressing Flag-SIRT6 and HA-p65; RIPA III lysis buffer; precipitated with α-Flag or α-HA antibody overnight at 4°C, protein A/G agarose; immunoblot

binding	Substance
binds	Flag-SIRT6 (full-length SIRT6) (from UniProt Q8N6T7 1-355)
